PubChem BioAssay AID1347073 (National Center for Advancing Translational Sciences (NCATS), 2019)
Hit rate of the full screen: of about 45,000 compounds, about 200 (0.44%) were called active. About 7% were inconclusive and are not listed. The call rests on the fitted dose curve; in most records, active means well fitted activation curve with a large enough effect; inconclusive means small, poorly fitted or top-dose-only effect; inactive means no such curve, though single readings can be large or run the other way. The list shows a part of the results.

assay: qHTS of TDP-43 Inhibitors: NCGC Sytravon Library Screen; settings: yeast TDP-43 toxicity rescue, BacTiter-Glo growth, 24 h; series mostly up to 46.1 µM; growth rescue (activation): at the top concentration; further: nearly all actives have a fitted effect of over 55% in size; on growth rescue (activation): 0% is about no effect
How it was run: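 TDP-43-expressing yeast, pregrown in raffinose, seeded at OD600 0.02 in galactose medium with compound for 24 hr at 30 deg C. Growth read by BacTiter-Glo luminescence, so rescue of toxicity appears as activation.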
Potency means the concentration at half of the fitted maximal effect.

Structure (SMILES) | growth rescue (activation) | Potency
Cc1ccnc(N2CCCC(C(=O)NC3CC3)C2)n1 (stereo not drawn) | inactive: 7.05% | –
CCCCCc1ccc(-c2ccc(OC)cc2)nc1 | inactive: 30.4% | –
CC1C/C(=N\NC(=O)CCc2ccc(S(=O)(=O)N3CCOCC3)cc2)CC(C)(C)C1 (stereo not drawn) | inactive: 7.04% | –
Cc1c(NC(=O)c2cccs2)cccc1NC(=O)c1cccs1 | inactive: 10.1% | –
Cc1ccc(CC(=O)Nc2ccc(C(=O)N3CCCCC3)cc2)cc1 | inactive: 8.92% | –
COc1cccc(NC(=O)Nc2ccc(CC(=O)O)cc2)c1 | inactive: -2.07% | –
CCOC(=O)c1cc(-c2ccccc2)n(CC(=O)Nc2cccc(OC)c2)c1C | inactive: 21.6% | –
CCOC(=O)c1sc2cc([N+](=O)[O-])cc(SCCO)c2c1N | inactive: 10.6% | –
Nn1c(Nc2ccccc2)nc2ccccc21 | inactive: -10.6% | –
Cc1cc(OCCCC(=O)NCCc2ccccn2)ccc1Cl | inactive: -1.5% | –
COc1ccc(CN2CCN(C(C)C(=O)N3CCc4ccccc43)CC2)cc1OC (stereo not drawn) | inactive: 3.2% | –
Cc1ccc(NC(=O)Cc2csc(-c3ccccc3)n2)cc1F | inactive: 10.4% | –
NC(=O)CCN(C1CCCCC1)S(=O)(=O)c1cccc2nsnc12 | inactive: 13.1% | –
Cc1cc(=O)[nH]c(SCC(=O)NCC2CCCCC2)c1C#N | inactive: 15.5% | –
CC(Nc1nc(-c2cccnc2)nc2ccccc12)c1ccc(F)cc1 (stereo not drawn) | inactive: 2.21% | –
Cc1nccn1CC(O)COc1ccc([N+](=O)[O-])cc1 (stereo not drawn) | inactive: 0.904% | –
Cc1nn(-c2ccc(F)cc2)c(Cl)c1/C=C(/CCC(=O)O)c1nc2ccccc2s1 | inactive: 2.28% | –
CCOC(=O)c1cccc(NC(=O)c2ccc(NC(=O)C3CCCO3)cc2)c1 (stereo not drawn) | inactive: 21.7% | –
COc1ccc(N2C(=O)/C(=C3/C=CC=CN3C)SC2=S)cc1 | inactive: -4.7% | –
Cn1c(NCc2cccc(Cl)c2)nc2ccccc21 | inactive: 4.91% | –
O=C(NCc1ccccc1)c1ccc(=O)oc1 | inactive: 14.3% | –
CC1CCc2c(sc3ncnc(NCc4cccnc4)c23)C1 (stereo not drawn) | inactive: 4.85% | –
CC1CCCCC1NCC(=O)Nc1ccccc1C(=O)Nc1ccccc1 (stereo not drawn) | inactive: 13.7% | –
CN(Cc1ccccc1)C(=O)COC(=O)C1=NNC(=O)CC1 | inactive: 2.44% | –
Brc1ccc(-c2csc3[n+]2CCCCC3)cc1 | inactive: -5% | –
Cc1cc(NC(=O)C2CC(c3c(F)cccc3Cl)=NO2)n(-c2ccccc2)n1 (stereo not drawn) | inactive: 11.9% | –
CCS(=O)(=O)c1ncc(Cl)c(C(=O)Nc2ccc(S(=O)(=O)N(C)c3ccccc3)cc2)n1 | inactive: -3.88% | –

Structure (SMILES) | growth rescue (activation) | Potency
NC(Cc1ccc(C(F)(F)F)cc1)c1csc(Nc2cnccn2)n1 (stereo not drawn) | inactive: 10.3% | –
C/C(=N\NC(=O)COc1ccc(C(C)(C)C)cc1)c1ccc(-n2ccnc2)cc1 | inactive: 23% | –
Cc1ccc(NC2=C(NCCO)C(=O)c3ccccc3C2=O)cc1 | inactive: 7.94% | –
COc1cccc(C(=O)NC(=S)Nc2ccc(N(C)C)cc2)c1 | inactive: 30.2% | –
COc1ccc(C(=O)NN/C(C)=C/C(=O)C(F)(F)C(F)(F)C(F)(F)F)cc1 | inactive: 9.49% | –
O=C(/C=C/c1ccc(Cl)c(Cl)c1)N1CCc2ccccc21 | inactive: -11.1% | –
CC(C)Oc1ccc(/C=N/NC(N)=S)cc1 | – | active: 12.6 µM
CCc1nc2c(OCCC3CCCCC3)cccn2c1N(C=O)Cc1ccccc1 | inactive: 10.3% | –
Cc1ccc(-n2c(NN)nc3ccccc3c2=O)c(C)c1 | inactive: 16.9% | –
O=C(CSc1ncnc2ccccc12)c1cccs1 | inactive: 20.3% | –
O=C(c1cc(-c2ccncc2)nc2ccccc12)N1CCN(c2ncccn2)CC1 | inactive: -1.24% | –
O=C(COC(=O)c1ccc2c(=O)n3c(nc2c1)CCC3)Nc1ccc(OC(F)F)cc1 | inactive: 9.43% | –
COc1cc(/C=N/NC(=O)CSc2nc3ccccc3n2C)cc(OC)c1OC | inactive: -17.3% | –
COc1ccc(C(C)(C)NC(=O)C2CCC(=O)N(C3CC3)C2)cc1OC (stereo not drawn) | inactive: -0.164% | –
COC(=O)C1(C(F)(F)F)N=C(C(F)(F)F)Nc2ccc(Cl)cc21 (stereo not drawn) | inactive: 19.5% | –
O=C(NCc1cc(Cl)cc(Cl)c1)c1ccc2nc([C@@H]3O[C@H](CO)[C@H](O)[C@H](O)[C@H]3O)[nH]c2c1 | inactive: 0.0225% | –
CCc1ccc(NC(=S)NC2CCN(Cc3ccccc3)CC2)cc1 | inactive: 18.3% | –
CCn1c(O)c(N=NC(=O)Cn2ccc(C(F)(F)F)n2)c2ccccc21 | inactive: 21.2% | –
COc1ccc(/C=C2/SC(=O)N(CCC(=O)Nc3ccc(S(=O)(=O)Nc4nccs4)cc3)C2=O)cc1 | inactive: 5.01% | –
COC(=O)c1cc(NC(=S)N2CCN(C(=O)C3CCCO3)CC2)cc(C(=O)OC)c1 (stereo not drawn) | inactive: 17.3% | –
COc1cccc(CNc2nc3cc(-c4ccc(F)cc4)sc3c(=O)n2C)c1 | inactive: 24% | –
CC1CC(C)CN(S(=O)(=O)c2ccc(NN)nc2)C1 (stereo not drawn) | inactive: 4.78% | –
Oc1ccccc1-c1cc(C(F)(F)F)nc(-c2ccccc2)n1 | inactive: -2.89% | –
CCOC(=O)c1c(NC(=O)c2ccncc2)sc(C)c1C | inactive: -3.09% | –
Cc1cccc(NC(=O)CC2c3ccccc3Oc3ccccc32)c1 | inactive: 3.4% | –
O=C(Nc1ccc(NC(=O)C2CC2)nc1)c1ccccc1F | inactive: -5.96% | –
